From US10034931B2, “Use of EGFR pathway inhibitors to increase immune responses to antigens” (Emory University, priority 2013, dated 2018)

Experiments:
[1] = system: IFN-γ-producing and IL-4-producing cells; assay: IL-4 and IFN-γ secreting cells (ELISPOT) in skin-draining lymph nodes and spleens; conditions: concomitantly administered with A/California/07/09 subunit influenza vaccine in murine skin
[2] = system: A/California/07/2009 virus; assay: Neutralizing antibody titers by microneutralization assay in sera of vaccinated mice; type: in vivo, BALB/c mice; conditions: concomitantly administered with A/California/07/09 subunit influenza vaccine in murine skin

C=CC(=O)Nc1ccc2ncnc(Nc3cccc(Br)c3)c2c1 [PD168393, N-[4-(3-bromoanilino)quinazolin-6-yl]prop-2-enamide]
cellular immune responses [1]: significantly enhanced
influenza-specific neutralizing antibody titters [2]: significantly enhanced
